Experimental data published in the supplement of paper PMC11417369.
This is one part of the list.

System: PF3D7_0420300 AP2 domain 1 (GST-tagged)
Assay: gcPBM binding intensity (ln(normalized median fluorescence intensity)); higher = stronger DNA binding
Outline: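 Binding intensity values are the highest Masliner-normalised natural-log median intensity among replicate spots of either probe orientation. The binding step lasted 1 h in 1× PBS with 1% milk, 0.2 mg/ml BSA, 0.5% salmon testes DNA and 0.03% Triton X-100, using GST-tagged P. falciparum DNA-binding domains expressed in E. coli on an Agilent 4 × 180k array of primer-extended double-stranded 36-bp intergenic genomic probes plus negative controls. Alexa488 anti-GST antibody and a 488 nm scan detected bound protein.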

Sequence | gcPBM binding intensity (ln)
ATATAACATTGTTTTGCATGTAAATATTCAATTTTT [TGCATGCA_site758] | 9.19
TCATATATATATATATGTACATATTTATGTATGTAT [XGTACX_site6291] | 9.18
ACATAGATCATAGGTTGTACGAAGGTATCCTTTATT [XGTACX_site694] | 9.36
ACTTTTTGAATGTTTGCACACAAATCTCATAATTTT [CACACA_site358] | 9.54
AAAAGGAGCAAATACAAAAAAATGAACAAAAAAAAA [CACACA_negctrl_site716] | 9.48
TTTTTCTTTGAATAAATACACACGAGAAATGAAAGT [CACACA_site1688] | 9.52
CATACCTATAGACACACACACACACGCACGCACAAA [CACACA_site6374] | 10.2
TTTTGTAATGCTTTTTTTTTTTTTTTTTTTTTTTTT [CACACA_negctrl_site932] | 9.2
TTTTTATTTTTTTATGCATGTGATGAAACGTGCCTA [TGCATGCA_site141] | 8.79
TAATAAATCAAATGCACACACACAAAAAAAAAAAAA [CACACA_site161] | 10
ATAATTAACAAATACACACACACACCCAGACAAAAA [CACACA_site4445] | 10.2
TTAAAAGAAAATAGGTGTACACATAATATATACATA [XGTACX_site7697] | 9.39
AAACAAATAAAAATATGTACACATTTTTTCATTATG [XGTACX_site5449] | 9.23
AAAATATTAAATATGTGTACATATAATAGTTCAATG [XGTACX_site5957] | 9.3
TTTTTAATCATAATATGTACATATAAAAATGGTTTG [XGTACX_site3996] | 9.06
AATATGTCTTAAAAAAGTACATAAATTTTAACTTCA [XGTACX_site6670] | 8.84
AACAATTAGAATAACGCATGCATTTATAATATAGAA [TGCATGCA_site595] | 9.3
TGTGTATATATAAATACACACCAAATGTTAATATAT [CACACA_site8501] | 9.36
ATACTGTATAGTCGCACACAAAAATATAAAATATTT [CACACA_site6004] | 9.41
TTACACAAGGATAAAAACATATGTATGATTATATAT [CACACA_negctrl_site654] | 9.38
AAAATTTGAAAAAGGGGTACTTAATAAAAGTTTCAT [XGTACX_site932] | 9.1
AGTATTATTTACTGCGCATGCTATTTATATATATTA [TGCATGCA_site876] | 9.37
ACCATATATTAAAAAGTGCATTAAATATATAAATAT [GTGCAC_site9443] | 9.08
AATAGAAATTATATAAACATAAATGAATAAATAAAT [CACACA_negctrl_site1817] | 9.43
